# Measurements from PubChem BioAssay AID1347417 (National Center for Advancing Translational Sciences (NCATS), 2020).
# Out of some 120,000 compounds screened, about 5,300 (4.4%) were called active. The inconclusive results got no clear call from the source; some entries with a clear call stand among them for comparison. Calls come from the whole dose curve; as a rule, active = well fitted inhibition curve with a large enough effect; inconclusive = small, poorly fitted or top-dose-only effect; inactive = no such curve, though single readings can be large or run the other way. A potency beside an inconclusive call is a rough fit, not a confirmed value.
# Test: qHTS Primary assay for Inhibitors of Plasmodium falciparum Dd2 growth in vitro; note: nearly all actives have a fitted effect of over 65% in size;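 for activity, negative = inhibition: plate controls were DMSO vehicle for no effect and reference drug for full effect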
# Conditions: P. falciparum Dd2 growth, SYBR Green, 72 h; activity, negative = inhibition: at 28.9 µM (top of the series) unless noted; series mostly up to 28.9 µM
# In short: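 Readout: SYBR Green fluorescence, 485 nm excitation, 535 nm emission, after ~16 h lysis at 37C. Before that, Dd2-infected red cells (2.5% hematocrit) grew 72 h with compound, 29 uM top final concentration.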
# Potency is the fitted concentration of half-maximal effect; tags give direction and shape of the fitted curve.
Structure (SMILES),Potency,"activity, negative = inhibition",outcome
CCOC(=O)c1ccc(NC(=O)Cn2c(=O)n(CC)c(=O)c3c2cc(C)n3C)cc1,"inconclusive: 17.8 µM [inhibitor, single point]",–,–
CCn1c(=O)n(CC)c2cc(N3CCCC3)c(NC(=O)Nc3cc(C)cc(C)c3)cc21,"inconclusive: 10 µM [inhibitor, single point]",–,–
COc1ccccc1N1CCN(C(=O)c2ccc(Nc3nc4ccccc4n4nnnc34)cc2)CC1,active: 10 µM,–,–
CCOCC(=O)N1CCC(N2C(=O)C3(CCCCC3)C2c2ccncc2)CC1 (stereo not drawn),"inconclusive: 10 µM [inhibitor, single point]",–,–
Cc1cccc(-c2nnc(SCC(=O)N3CCCCC3)o2)c1,"inconclusive: 8.91 µM [inhibitor, single point]",–,–
O=C(Nc1ccccc1F)c1oc2ccccc2c1NC(=O)c1c(F)cccc1F,–,inactive: -20.2%,–
COc1ccc(NC(=O)c2ccc(Cn3ccn4nc5c(c4c3=O)CCCC5)cc2)cc1OC,"inconclusive: 17.8 µM [inhibitor, single point]",–,–
COc1cc(Cl)ccc1C(=O)N1CC[C@@](C)(O)[C@@H](O)C1,"inconclusive: 0.141 µM [inhibitor, full curve, poor fit]",–,–
COC(=O)[C@H](NC(=O)C1=C[C@@H](NC(=O)Nc2cccc(F)c2)[C@@H](O)[C@H](O)C1)C(C)C,–,inactive: 6.17% [at 44.1 µM],–
O=C1NC2(CCN(Cc3ccccc3)CC2)Oc2ccccc21,"inconclusive: 1.78 µM [inhibitor, partial curve, poor fit]",–,–
O=C(NCCC1=CCCCC1)c1ccc2c(c1)N(Cc1ccccc1)C(=O)c1ccccc1S2=O (stereo not drawn),"inconclusive: 12.6 µM [inhibitor, partial curve, poor fit]",–,–
CCc1cccc(NC(=O)N2CCc3nc4cc(-c5ccc(OC)cc5)[nH]n4c(=O)c3C2)c1,"inconclusive: 0.794 µM [inhibitor, full curve, poor fit]",–,–
CCn1c(SCC(=O)Nc2c(C)cccc2C)nnc1-c1nonc1NC(C)=O,–,inconclusive: -53% [inhibitor] [at 0.594 µM],–
CCc1ccc(CN(Cc2cn[nH]c2-c2ccc(OC)cc2)C(=O)Nc2ccc(Br)cc2)cc1,"inconclusive: 14.1 µM [inhibitor, partial curve, poor fit]",–,–
O=C(Cc1cccc(F)c1)N1CCC(n2cc(-c3nc(-c4ccccc4)no3)nn2)CC1,–,–,inactive
CC(=O)Nc1ccc(S(=O)(=O)N[C@H]2CO[C@H]3[C@@H]2OC[C@@H]3n2nnnc2Oc2ccc(-n3cncn3)cc2)cc1,"inconclusive: 7.94 µM [inhibitor, partial curve, poor fit]",–,–
Cc1ccc(CCNC(=O)CN(c2ccc(C(C)C)cc2)S(=O)(=O)c2c(C)nn(C)c2C)cc1,"inconclusive: 15.8 µM [inhibitor, single point]",–,–
COc1cccc(C(=O)Nc2cccc(-c3nnc4n3CCCC4)c2)c1OC,"inconclusive: 1.41 µM [inhibitor, partial curve]",–,–
O=C(Nc1cccc(C(F)(F)F)c1)Nc1ccc2snnc2c1,active: 1.12 µM,–,–
Cc1cc(S(=O)(=O)Nc2ccc(O)c(Sc3nc4ccccc4s3)c2)ccc1Cl,"inconclusive: 10 µM [inhibitor, single point]",–,–
Cc1nn(-c2ccccc2)c(Oc2ccccc2)c1CCC(=O)NCC1CCCO1 (stereo not drawn),"inconclusive: 11.2 µM [inhibitor, partial curve, poor fit]",–,–

Structure (SMILES),Potency,"activity, negative = inhibition",outcome
O=C1CCN(C(=O)NCCc2ccccc2)CCCCCCN1,–,inactive: -3.11%,–
Cc1cccc(OC[C@H]2C[C@@H](N(C)C)[C@H](O)[C@@H]2O)n1,–,inactive: -13% [at 44.1 µM],–
Cc1ccc(CN2CCN(C3CCN(S(=O)(=O)N(C)C)CC3)C(=O)C2=O)cc1,"inconclusive: 10 µM [inhibitor, single point]",–,–
Cc1cccc(-c2noc([C@@H]3Cc4nc[nH]c4CN3C(=O)c3ccc(-c4ccccc4)cc3)n2)c1,"inconclusive: 2.82 µM [inhibitor, single point]",–,–
COc1ccc(OC)c(CNC(=O)CSc2c3c(nc4cc(Cl)ccc24)CCCC3)c1,"inconclusive: 10 µM [inhibitor, single point]",–,–
CCN(CCCNC(=O)c1nn(-c2ccc(OC)c(Cl)c2)c(=O)c2c1c1ccccc1n2C)c1ccccc1,"inconclusive: 3.55 µM [inhibitor, single point]",–,–
c1ccc(CCCN2CC[C@H](c3nnc(-c4ccccc4)o3)C2)cc1,"inconclusive: 28.2 µM [inhibitor, single point]",–,–
COc1ccc(C(=O)N2CCN(C(=O)c3ccccc3)C[C@@H]2C(=O)N[C@H]2CCCNC2=O)cc1,"inconclusive: 2.24 µM [inhibitor, full curve]",–,–
COc1ccccc1N1CCN(C(=O)CSc2nc3ccccc3nc2Cc2ccc(C)cc2)CC1,–,inactive: -7.44%,–
Cc1ncc2c(c1CNC(=O)CC(C)c1ccccc1)CCNC2 (stereo not drawn),–,inactive: -12.9%,–
O=C(c1ccccn1)N1CCC2(CC1)NCCc1c2[nH]c2ccccc12,"inconclusive: 8.91 µM [inhibitor, single point]",–,–
CC(=O)N1CCN2C(=O)N([C@@H](C)c3ccccc3)C(=O)[C@@H]2C1,–,inactive: -17.8% [at 44.1 µM],–
COc1ccc(-c2cc([C@H]3CN4CC[C@H]3C[C@@H]4CNC(=O)c3ccc(C(C)(C)C)cc3)n(C)n2)cc1OC,"inconclusive: 15.8 µM [inhibitor, partial curve, poor fit]",–,–
NCc1cccc(-c2ccsc2)c1,"inconclusive: 14.1 µM [inhibitor, partial curve, poor fit]",–,–
Cc1cc(C)cc(C(=O)NC2CCCN(c3cc(-c4ccc(F)cc4)[nH]n3)C2)c1 (stereo not drawn),–,inactive: -6.15%,–
COc1ccccc1Oc1c(CCC(=O)NCc2ccco2)c(C)nn1-c1ccc(F)cc1,"inconclusive: 6.31 µM [inhibitor, partial curve, poor fit]",–,–
O=C(O)CCC(=O)N1CCC2(CC1)CC(c1ccccc1)=NO2,–,inactive: -0.816%,–
CN1CC(=O)Nc2cc(C(=O)O)ccc21,"inconclusive: 0.0282 µM [inhibitor, full curve, poor fit]",–,–
COc1ccccc1-c1cnc(NCc2ccccc2)c2c1CCO2,"inconclusive: 10 µM [inhibitor, partial curve, poor fit]",–,–
COCCNC(=O)[C@H]1C[C@H](Oc2cccnc2)CN1C(=O)Nc1ccccc1,–,inactive: -5.26%,–
Cn1nccc1C(=O)N1CCCN(Cc2ccncc2)C(c2ccccc2)CC(=O)NCC1 (stereo not drawn),"inconclusive: 7.94 µM [inhibitor, partial curve]",–,–

Structure (SMILES),Potency,"activity, negative = inhibition",outcome
O=C(CN1C(=O)CCSc2ccccc21)Nc1ccc(C(F)(F)F)cc1,"inconclusive: 17.8 µM [inhibitor, single point]",–,–
O=C(N[C@H]1C[C@H]2C(=O)NC[C@@H](CCC(=O)N3CCCCC3)N2C1)c1cccs1,–,inactive: 15.7% [at 44.1 µM],–
Cc1ccc(CNC(=O)C2CCCN(c3ncnc4onc(-c5ccc(F)cc5)c34)C2)cc1 (stereo not drawn),"inconclusive: 17.8 µM [inhibitor, single point]",–,–
COCCN(C)C[C@@H]1CN(C(=O)c2cnn(-c3ccccc3)c2)C[C@@H]1CO,–,inactive: 11.6%,–
CC(=O)N1CCC(N2CCC[C@H]2c2nc(-c3ccc(N4CCC(C(N)=O)CC4)nc3)no2)CC1,–,–,inactive
CN(C(=O)Nc1ccc(Cl)cc1)C1CCc2ccccc21 (stereo not drawn),"inconclusive: 31.6 µM [inhibitor, single point]",–,–
Cn1nc(-c2nncn2CC2CC2)c2c1CCN(C(=O)c1ccncc1)C2,"inconclusive: 2.82 µM [inhibitor, single point]",–,–
COc1cccn(CC(=O)N2CCN(C)C3(CCNCC3)C2)c1=O,–,inactive: -13%,–
O=C(NCCn1ccn2nc(-c3ccc(F)cc3)cc2c1=O)c1cc(Cl)ccc1F,"inconclusive: 0.891 µM [inhibitor, partial curve, poor fit]",–,–
O=C1OCCCN1CCNC(=O)[C@@]12CNC[C@@H]1CN(Cc1ccccc1)C2,"inconclusive: 11.2 µM [inhibitor, partial curve, poor fit]",–,–
O=C1NCCCCCCN(S(=O)(=O)c2ccc3c(c2)CCC3)[C@H]2CCC[C@@H]12,"inconclusive: 11.2 µM [inhibitor, partial curve, poor fit]",–,–
Cc1ccccc1C(=O)N1C(C(=O)NC2CC2)COC12CCN(C(=O)c1cccc(Cl)c1)CC2 (stereo not drawn),–,–,inactive
O=C(NC1CCCCC1)C1CN(S(=O)(=O)c2cc(F)ccc2F)CC12CCOCC2 (stereo not drawn),"inconclusive: 17.8 µM [inhibitor, single point]",–,–
COc1cccc(CN2CCC(Oc3ccccc3-c3nc(-c4ccncc4)no3)C2)c1 (stereo not drawn),"inconclusive: 2.24 µM [inhibitor, partial curve, poor fit]",–,–
O=C(CCc1ccccc1)N1CCC(CCOc2ccccc2F)C1 (stereo not drawn),–,–,inactive
COc1cccc(C(=O)N2CCC3(CC2)CN(c2ccncn2)CC3CO)c1C (stereo not drawn),"inconclusive: 17.8 µM [inhibitor, single point]",–,–
COc1ccc(N2CCN(C(=O)c3cnn(-c4ccc(OC)cc4)c3C3CCN(C(=O)OC(C)(C)C)CC3)CC2)cc1,"inconclusive: 17.8 µM [inhibitor, single point]",–,–
Cc1ccc(C(=O)N2CCC3(CC2)NC(=O)N(c2cccc(Cl)c2)N3)c(C)c1,"inconclusive: 10 µM [inhibitor, single point]",–,–
Cc1ccc(C)c(C(=O)N2CC[C@@H]3CN(S(C)(=O)=O)[C@@H]3C2)c1,–,inactive: -9.36%,–
COc1cc(OC)c(NC(=O)c2ccc3c(c2)N(Cc2ccc(C)cc2)CCS3)cc1Cl,active: 11.2 µM,–,–
Cc1cccc(C2N=C(N)Nc3nc4ccccc4n32)c1 (stereo not drawn),"inconclusive: 17.8 µM [inhibitor, single point]",–,–
